Assay results reported in the supplement of paper PMC3334620.
Over roughly 33,000 sequences, “E-score (-0.5 to 0.5)” has its median near -0.017; the highest 2% begin near 0.3. This is one part of the list.

Target: T1, Sut1 (UniProt P53032)
T1 sequence: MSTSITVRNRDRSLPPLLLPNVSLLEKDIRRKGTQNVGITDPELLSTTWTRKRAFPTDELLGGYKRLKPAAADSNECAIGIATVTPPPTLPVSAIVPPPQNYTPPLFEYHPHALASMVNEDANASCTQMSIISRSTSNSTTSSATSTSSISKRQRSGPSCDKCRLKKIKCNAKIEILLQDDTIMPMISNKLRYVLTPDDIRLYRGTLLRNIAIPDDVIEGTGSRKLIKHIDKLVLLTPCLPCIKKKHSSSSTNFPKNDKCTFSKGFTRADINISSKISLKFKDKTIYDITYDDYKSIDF
Assay: PBM E-score (8-mer binding enrichment) (E-score (-0.5 to 0.5)); higher = stronger / more preferred TF binding; most listed sequences are background and not binding sites
Conditions: protein concentration: 200 nM; construct: GST-full length
Summary of the method: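 Detection of bound protein used fluorescent anti-GST, with scans normalised by masliner. The proteins were GST-tagged yeast transcription factors applied at about 100-200 nM to universal all-10-mer Agilent arrays made double-stranded by primer extension. Each ungapped eight-base word, pooled with its reverse complement, was scored with an E-score from the Universal PBM Analysis Suite.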

Sequence | PBM E-score
CGCAAGAA | 0.0842
CCGAGACG | -0.0262
AATACCGG | 0.244
GGACGGAC | 0.285
GATGGCAA | 0.0398
AGTCCTTG | -0.127
AGTGCCCA | -0.113
CGCCGCTA | 0.0611
TAAAGCTA | 0.101
AACGGTCA | 0.00729
GCAGGGCC | -0.373
GCACAGTA | -0.0754
CGACTTTC | 0.0479
CATGGGAC | -0.24
CTCACTAA | 0.0766
GCCAGATA | -0.113
CTAATATC | 0.102
CCGTCAGC | -0.0258
ACCATCAA | 0.0283
CCTATAGC | -0.202
ACGTCATA | 0.182
CCTTCGGA | 0.32

Sequence | PBM E-score
CGCTCAGA | 0.0462
AACTGCCA | -0.177
AGCGCATA | 0.0255
CTTAGGTC | 0.00349
ATCCCACG | -0.261
AGCATACG | -0.231
ATTGTGAG | 0.131
AATAGACG | 0.0203
CCTCGCAG | -0.191
ACGCCAAT | -0.00725
CATGCGAA | -0.108
CTGTAAAG | 0.0573
CCCTCATC | -0.309
CAGTCCGA | 0.411
CCTGCCCA | -0.263
CCGTGGAG | -0.0839
CAGGCCGG | -0.0888
GCCGTACC | -0.0266
ACGAAATA | 0.0685
AAGGCGTC | -0.17
TAGATACA | 0.0609
ACCATGCC | -0.274

Sequence | PBM E-score
GTCGAGGA | -0.232
AACCACAG | -0.169
CGCCTGTC | -0.236
CAGTCAGG | -0.144
CAAGAGAG | -0.00876
GAAATATA | 0.253
ATCGTCAG | -0.181
ATCACTGA | -0.117
CTACTGCA | -0.212
CTTCATCC | -0.0471
AGAATCAT | 0.0964
ACAAGTGC | -0.153
CGGCCTTA | 0.11
CTCGAGCA | -0.0175
AGCGATGC | -0.255
ATTGGTAA | 0.102
GCGTGGCC | -0.2
AACACCCT | -0.195
ACAGATGA | -0.255
AAACCAGA | -0.117
ACGGGGAA | 0.0702
CCAGTGTC | -0.206

Sequence | PBM E-score
GGACTGAA | 0.0817
ACGGAATG | 0.127
AGCGGTTC | -0.0664
ACACCTAA | 0.0763
GCAAACTA | -0.0205
CAGAAACA | 0.00594
AATCCGAT | 0.195
AAACCGAC | -0.00265
GCTCTTCC | -0.116
CAAAACGG | 0.0744
CCTAACCG | -0.211
ATCTCTGA | -0.0359
ACACTGAG | -0.135
CGTGCCGC | -0.258
ATTCATCG | 0.0869
ACTTGAAG | 0.0592
AAGCCCTC | -0.213
CTAAATGA | 0.0829
CCGCGGGC | 0.118
TCATAAAA | 0.156
